In all, about 420,000 compounds went through this assay and about 64,000 (15%) were called active. This list was built around the results that the source calls inconclusive (neither active nor inactive); the mix of calls is not that of the screen. Calls come from the whole dose curve; as a rule, active = well fitted inhibition curve with a large enough effect; inconclusive = small, poorly fitted or top-dose-only effect; inactive = flat fitted curve, though single readings scatter. Potencies of inconclusive entries are left out as doubtful fits.
Assay: qHTS for Inhibitors of human tyrosyl-DNA phosphodiesterase 1 (TDP1): qHTS in cells in absence of CPT; note: nearly all actives have a fitted effect of over 55% in size
Settings: DT40 Tdp1-/- hTDP1 cells, no CPT, ATP luminescence, 48 h; activity change, negative = growth inhibition: at 46.2 µM (top of the series) unless noted
How it was run: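 Cells were dispensed at 400 per well, compounds added by pin tool, plates incubated ≥48 hr at 37 °C, then CellTiter-Glo added for 30 min at room temperature before luminescence reading. Line: DT40 Tdp1-/- complemented with hTDP1; camptothecin omitted.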
% is set by controls: 0 for no effect and ±100 for the full control effect; potency is the fitted concentration of half-maximal effect; tags give direction and shape of the fitted curve.

Compound | Potency | activity change, negative = growth inhibition
CCN(CC)C(=O)NC(c1ccc(C)c(F)c1)C(Cl)(Cl)Cl (configuration not stated) | active: 16.4 µM | 
Cc1ccc(Cl)cc1NC(=O)C(=O)NCCc1sc(-c2ccc(F)cc2)nc1C | inconclusive [inhibitor, partial curve, poor fit] | 
CCC1CCCCN1C(=S)Nc1cccc(S(=O)(=O)N(C)C)c1 (configuration not stated) | inconclusive [inhibitor, partial curve] | 
COc1ccc(C(Nc2cc(C)ccn2)c2ccc3ccc(C)nc3c2O)cc1 (configuration not stated) | inconclusive [inhibitor, single point] | 
COc1ccc(CCNC(=O)C2CCN(Cc3nc(-c4ccc(Cl)cc4)oc3C)CC2)cc1OC | inconclusive [inhibitor, single point] | 
CC(CN1CC(=O)NC(=O)C1)N1CC(=O)NC(=O)C1 (configuration not stated) | inconclusive [inhibitor, single point] | 
COc1ccccc1CNc1ncc(-c2ccc(F)cc2)n1C | inconclusive [inhibitor, partial curve] | 
COc1ccc(CCNC(=O)c2ccc([N+](=O)[O-])cc2)cc1 | inconclusive [inhibitor, partial curve] | 
Cc1ccc(Cl)cc1NC(=O)COc1ccccc1 | inconclusive [inhibitor, single point] | 
CCCc1ccc(C(=O)N2CCN(c3ccccc3OCC)CC2)cc1 |  | inconclusive: -33.5% [inhibitor]
O=C(Cc1ccc(Cl)cc1Cl)NC1CCCCCC1 | inconclusive [inhibitor, single point] | 
O=Cc1cn(CCC(=O)O)nc1-c1cccc(Br)c1 | inactive | 
COC(=O)C1=C(C)N(Cc2ccccc2)C(=NCC2CC2)N[C@H]1c1ccccc1 | active: 23.1 µM | 
CCCSc1nc(N2CCOCC2)c2c(c1C#N)CCCC2 |  | inconclusive: -30.7% [inhibitor]
CCn1nc(C)cc1C(=O)NC1CC(C)(C)Cc2c1cnn2-c1cccc(F)c1 (configuration not stated) | active: 16.4 µM | 
Cc1cccc([C@H]2[C@@H]3C=CCC[C@@H]3C(=O)N2Cc2ccccc2)c1 | inconclusive [inhibitor, single point] | 
CC1CCCC(NC(=O)c2ccc(F)c(S(=O)(=O)N3CCOCC3)c2)C1C (configuration not stated) | inconclusive [inhibitor, partial curve, poor fit] | 
C=CCc1ccccc1OCC(O)CN1CCN(CCN2C(=O)c3cccc4cccc(c34)C2=O)CC1 (configuration not stated) | inconclusive [inhibitor, single point] | 
CC(=O)N1CCN(S(=O)(=O)c2cccc(C(=O)Nc3ccc(C)cn3)c2)CC1 | inconclusive [inhibitor, partial curve] | 
FC(F)Oc1ccc(-c2csc(Cc3nnc4n3CCCCC4)n2)cc1 | inconclusive [inhibitor, single point] | 
O=c1cc(CN2CCN(Cc3ccccc3)CC2)c2ccc(O)cc2o1 | inconclusive [inhibitor, single point] | 

Compound | Potency | activity change, negative = growth inhibition
COc1cccc(NC(=O)/C(C#N)=C\c2cn(Cc3ccc(Cl)cc3)c3ccccc23)c1 | inconclusive [inhibitor, full curve] | 
Cc1ccccc1N=C1SC(CC(=O)Nc2ccc3ccccc3c2)C(=O)N1Cc1ccccn1 (configuration not stated) | active: 20.6 µM | 
C[C@@H]1CN([C@@H](C)CO)C(=O)c2cc(NC(=O)Nc3cccc4ccccc34)ccc2O[C@@H](C)CCCCO[C@H]1CN(C)C(=O)c1ccccc1 | active: 20.6 µM | 
Cc1cccc(S(=O)(=O)c2cn(Cc3ccccc3)c3cc(N4CCCCC4C)c(F)cc3c2=O)c1 (configuration not stated) | inconclusive [inhibitor, single point] | 
O=C(COc1ccc2c3c(c(=O)oc2c1)CCCC3)NCC(O)c1ccccc1 (configuration not stated) | inconclusive [inhibitor, full curve] | 
O=C(NNC(=S)NC(=O)c1sc2ccccc2c1Cl)c1ccc(Cl)cc1 | inconclusive [inhibitor, single point] | 
CCOC(=O)[C@]12CCCC=C1N(Cc1ccccc1)C(=O)[C@H](CC(=O)NCc1ccccc1)C2 | inconclusive [inhibitor, single point] | 
O=S1(=O)CCOC[C@H](c2ccccc2)N1Cc1ccc(Cl)c(Cl)c1 | inconclusive [inhibitor, single point] | 
COC(=O)c1sc(S(=O)(=O)NC(Cc2ccccc2)C(=O)O)c(C(=O)OC)c1C (configuration not stated) | inactive | 
COCc1cc(C)nc2oc(C(=O)c3ccccc3)c(N)c12 | inconclusive [inhibitor, single point] | 
Cc1nc2ccccc2n1/N=C/c1cccnc1 |  | inconclusive: -33.3% [inhibitor]
Cc1ccc2nc(SCc3ccc([N+](=O)[O-])cc3)[nH]c2c1 | inconclusive [inhibitor, single point] | 
O=C(CSc1c2c(nc3cc(Cl)ccc13)CCCC2)NCc1ccco1 | active: 16.4 µM | 
Cc1ccc(C(=O)Nc2nc(=O)n(C(=O)C3CC3)s2)cc1 | active: 16.4 µM | 
Nc1ccccc1SC1CC(=O)N(c2ccc(Cl)c(Cl)c2)C1=O (configuration not stated) | active: 13 µM | 
CCc1nc(SCC(=O)NCc2ccco2)c2c3c(sc2n1)CCCC3 | inconclusive [inhibitor, partial curve] | 
CC(=O)Nc1ccc(OS(=O)(=O)c2cc(Cl)ccc2C)cc1 | active: 14.6 µM | 
CCCCc1ccc(C(=O)N/C(=C\c2ccc(C)cc2)C(=O)NC2CCCCC2)cc1 | active: 14.6 µM | 
CCOC(=O)C1=C(O)/C(=C/c2ccc(CNC(=O)C(=O)Nc3ccc(C)cc3)o2)N=C1C | active: 6.51 µM | 
CCc1nc2ccc(C(=O)N3CCN(c4ccc(Cl)cc4)CC3)cc2nc1CC | inconclusive [inhibitor, single point] | 
Cc1cc(C)c2c(c1)/C(=N/Nc1ccc(S(N)(=O)=O)cc1[N+](=O)[O-])CCC2 | inconclusive [inhibitor, single point] | 

Source: PubChem BioAssay AID686978 (National Center for Advancing Translational Sciences (NCATS), 2013)
